From US9695463B2, “DNA 5-methyl cytosine demethylation activity of vertebrate DNA methyltransferases” (Academia Sinica, priority 2012, dated 2017)

Biological target: T1, recombinant mouse DNMT3B (Mus musculus, UniProt O88509)
T1 construct: purchased BPS Bioscience; host or cells: recombinant baculovirus-infected Sf9 insect cells
Experiment: Effect of Ca2+, DTT, SAM and H2O2 on the DNA demethylation activity of recombinant DNMT3B (hydrolysis-TLC assay)
Type: biochemical
Conditions: 37°C, 4 h; for effect on the extent of conversion of 5-mC to C by DNMT3B (in words): 40 nM recombinant DNMT3B, buffer B, 1 mM CaCl2, 5 mM DTT, 160 μM SAM, H2O2 up to 10 mM
Experimental: M, mock control without incubation.
FIGS. 3A-B show the effects of a reducing condition and SAM on the DNA demethylation and methylation activities of DNMT3B. […] After incubation at 37° C. for 4 h, the DNA products were analyzed by the hydrolysis-TLC assay. The results are quantitatively presented in the histogram. […] After incubation at 37° C. for 4 h, the extents of C methylation of the DNAs from the different reactions were determined by hydrolysis-TLC assay and quantitatively compared in the histogram. Error bars indicate S.D.
Rx, reactions. […] M, mock control without incubation.

effect on the extent of conversion of 5-mC to C by DNMT3B (in words) | Ca2+ concentration at which the DNA demethylation activity of DNMT3B is highest (40 nM recombinant mouse DNMT3B, 0, 10 μM, 100 μM, 1 mM, 5 mM, 10 mM CaCl2) | SMILES
did not affect | – | OO [H2O2]
greatly decreased | – | O[C@H](CS)[C@H](O)CS (racemic) [DTT, dithiothreitol]
greatly reduced | – | C[S+](CC[C@H](N)C(=O)O)C[C@H]1O[C@@H](n2cnc3c(N)ncnc32)[C@H](O)[C@@H]1O (some centres unmarked) [SAM, S-adenosylmethionine]

SMILES | effect on the extent of conversion of 5-mC to C by DNMT3B (in words) | Ca2+ concentration at which the DNA demethylation activity of DNMT3B is highest (40 nM recombinant mouse DNMT3B, 0, 10 μM, 100 μM, 1 mM, 5 mM, 10 mM CaCl2)
[Ca+2].[Cl-].[Cl-] [Ca^2+, CaCl2] | significant DNA demethylation activity only in the presence of Ca^2+ | 1 mM
